The list shows a part of the results.

The experiment has as its system PfHDP1 homeodomain (GST-tagged). In words: gcPBM binding intensity (ln(normalized median fluorescence intensity)); higher = stronger DNA binding. In outline: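 GST-tagged P. falciparum DNA-binding domains produced in E. coli were incubated for 1 h on an Agilent 4 × 180k array of primer-extended double-stranded 36-bp intergenic genomic probes with negative controls. Binding intensity is the highest Masliner-normalised natural-log median intensity across replicate spots of either probe orientation, with bound protein detected by Alexa488 anti-GST antibody at 488 nm.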
“ATTTTCTATATCTTTCAACACACAAATTTTTTTTTC [CACACA_site7918]”: the “gcPBM binding intensity (ln)” value turned out to be 6.69.

As for “TACATCAAACAAGTATGTACATATATATATATATAT [XGTACX_site7415]”, the “gcPBM binding intensity (ln)” value is 9.29.

As to “TATATATATATAGATGCATGCAATTACATATAACAA [TGCATGCA_site118]”, the “gcPBM binding intensity (ln)” value was determined as 8.87.

As to TTGTGTACATATTAAGTGCATATATATATATATATA, the “gcPBM binding intensity (ln)” value is 9.66.

Regarding “ATATTACATATGTGCTGTACGCAATATATTATATCT [XGTACX_site1520]”, the “gcPBM binding intensity (ln)” value is 6.87.

On to “GCATATCTATTTTCACGTACACAAACATGTATATAT [XGTACX_site3722]”, for which the “gcPBM binding intensity (ln)” value came to 7.27.

As for “AAGAACTTTAATAAGTGTACATTTATTGGAAACATG [XGTACX_site2995]”, the “gcPBM binding intensity (ln)” value was 6.61.

As for “TTATATAAACACCAACGTACGTTCATTTAACATAAC [XGTACX_site5250]”, the “gcPBM binding intensity (ln)” value is 6.7.

“TATATATATATATATTGTACATATGTGGTATAAATG [XGTACX_site6108]”: the “gcPBM binding intensity (ln)” value came out at 9.03.

Take “AAAAATATATATTCAGTGCATATAACAAAAATTATA [GTGCAC_site9794]”: the “gcPBM binding intensity (ln)” value worked out at 9.35.

On to “CATATATAACCTATAGCACACATATATAATATATAT [CACACA_site8544]”, for which the “gcPBM binding intensity (ln)” value came to 6.87.

In the case of “CATAATAATAGAAACACACACACATAGACATATATA [CACACA_site1308]”, the “gcPBM binding intensity (ln)” value stood at 6.99.

On to “ATTAAATAAAAAAACACACACATATATACATATATA [CACACA_site3445]”, for which the “gcPBM binding intensity (ln)” value is 6.67.

As to “TAAAATATAGAAAATTTTATTAAATATAAAAAAATA [CACACA_negctrl_site1441]”, the “gcPBM binding intensity (ln)” value is 5.87.

With “TATATTATTTTATATTGTACATACCAAATATTATAT [XGTACX_site1693]”, the “gcPBM binding intensity (ln)” value was determined as 6.31.

In the case of “AGAAAAATAAACAAATGTACAAATTATTACTATATA [XGTACX_site1087]”, the “gcPBM binding intensity (ln)” value stood at 6.32.

“CATGTGATAATGATTAGTACATAAACAAAAATATAT [XGTACX_site5866]”: the “gcPBM binding intensity (ln)” value is 6.73.

With “ACATATTAATTATTATGACATACATATCAGTTATTA [TGCATGCA_negctrl_site126]”, the “gcPBM binding intensity (ln)” value was 6.31.

For “TTTCTCTTCTAAACATGTACAAAAATACATACATAT [XGTACX_site1365]”, the “gcPBM binding intensity (ln)” value was 6.9.

With “AAAAATTAAAATATTATAGTTGAAACTTTTATAAAT [TGCATGCA_negctrl_site454]”, the “gcPBM binding intensity (ln)” value came out at 5.9.

Turning to “TCCCATTTATTATGGTGTACAATTAATTAAACATAA [XGTACX_site750]”, the “gcPBM binding intensity (ln)” value was found to be 6.45.

In the case of “ATATATATATATATATGTACATACATACATAGAACT [XGTACX_site2214]”, the “gcPBM binding intensity (ln)” value was found to be 9.21.

With “TATATTTATTCCTGTTGTACTTTATATTATTTTTTT [XGTACX_site1415]”, the “gcPBM binding intensity (ln)” value came out at 6.89.

Turning to “AATTTTGTTTAGCACACACACATACATACATACATA [CACACA_site5707]”, the “gcPBM binding intensity (ln)” value is 7.49.

As for “TATAATATTAATGACTGTACTCATACGTATATTTAT [XGTACX_site5493]”, the “gcPBM binding intensity (ln)” value is 6.78.

As for “CCCATTTTGACAAAAAGTACAAGTTCAGGTTTTATA [XGTACX_site1532]”, the “gcPBM binding intensity (ln)” value was 6.44.

“TTTAATTATTAGTGTGCACACAACTATGAGTTTTTA [CACACA_site8997]”: the “gcPBM binding intensity (ln)” value stood at 10.8.

Consider “AATTACATTCAATTCTGTACTAATAGTAATTCAAAA [XGTACX_site7419]”, for which the “gcPBM binding intensity (ln)” value was determined as 6.46.

“CAAAAACATACCTACACACACAATATGTATTTATAA [CACACA_site5862]”: the “gcPBM binding intensity (ln)” value was determined as 6.55.

In the case of AAATGAATATTCATAGTGCAATATATAAATGAAAAT, the “gcPBM binding intensity (ln)” value turned out to be 9.5.

As for “AAATATATTTCACGCACACACACCCCAAATAAATTT [CACACA_site3820]”, the “gcPBM binding intensity (ln)” value stood at 7.65.

Take “TATTCCTATAAAAAAACACACACATATAAATATATA [CACACA_site8727]”: the “gcPBM binding intensity (ln)” value was determined as 6.56.

In the case of “AAATAGATAAGTAGGACACACATATATATATATTAA [CACACA_site1862]”, the “gcPBM binding intensity (ln)” value is 6.49.

Regarding “AAGTATTTTTTTACATGTACATATATATATATATAT [XGTACX_site5065]”, the “gcPBM binding intensity (ln)” value came to 9.28.

Turning to “ATATTTCAAAATGAAAGTACATATAAAAATTATACA [XGTACX_site3787]”, the “gcPBM binding intensity (ln)” value was determined as 5.9.

For “ATTTGCAGTATTTCGGAACACACAAACATAAATATG [CACACA_site8726]”, the “gcPBM binding intensity (ln)” value is 6.46.

On to “TATAAAAAATTCTTCCTTATTTTATGATATATATAT [TGCATGCA_negctrl_site57]”, for which the “gcPBM binding intensity (ln)” value worked out at 8.05.

As for “TCATTTTATTATTCTACACACTTATCTATAATTATA [CACACA_site34]”, the “gcPBM binding intensity (ln)” value came to 6.73.

For the sequence “TTTTTCATATGACACACACACAAAAATAATGTGGAA [CACACA_site7692]”, the “gcPBM binding intensity (ln)” value came to 6.58.

Turning to “AAATGAACACGAAAGGAAAAAAAAATATATATATAT [CACACA_negctrl_site267]”, the “gcPBM binding intensity (ln)” value worked out at 9.

Take “CATTTTTTTTTATAAATACACACGTACGGGTGCATA [CACACA_site1569]”: the “gcPBM binding intensity (ln)” value is 7.38.

As to “TTCTGGCAAAATAACACACACATATATTTTATATAC [CACACA_site3242]”, the “gcPBM binding intensity (ln)” value is 7.55.

In the case of “GAACATTTACGCCCCACACACCTACCAACAAAAAAA [CACACA_site7746]”, the “gcPBM binding intensity (ln)” value came to 6.81.

For the sequence “TTCTTAAAAAAAAATAAAATAAAAAAAAAAATAAAA [CACACA_negctrl_site99]”, the “gcPBM binding intensity (ln)” value came out at 6.16.

For the sequence “ATAATTACATAGATTGGTACACATTTTTGATTGTAT [XGTACX_site3802]”, the “gcPBM binding intensity (ln)” value was 6.42.

For “GTACAAATGATTAATCCTTTACTTATATATATATAT [XGTACX_negctrl_site138]”, the “gcPBM binding intensity (ln)” value stood at 8.9.

Turning to “TTAAAAATGTGTGTGCGTACATAATATTTCGAAAAA [XGTACX_site8197]”, the “gcPBM binding intensity (ln)” value was determined as 6.95.

Consider “AAATAAAATCATAATGTGCGCATATAAATTTGTAGG [GTGCAC_site9662]”, for which the “gcPBM binding intensity (ln)” value turned out to be 8.1.

In the case of “AAGGTAGATATATTTAGTACGTAATTTTTTTTTTTT [XGTACX_site7288]”, the “gcPBM binding intensity (ln)” value is 6.18.

Turning to “ATATATATATATGAAAGTACACATCTATTTTTTCTT [XGTACX_site6059]”, the “gcPBM binding intensity (ln)” value worked out at 9.08.

On to “ATTAATATGAATAAATGTACAAATGAATGATTACAT [XGTACX_site6044]”, for which the “gcPBM binding intensity (ln)” value came out at 6.01.

As to TAATATAATATATAGGTGCAATATTAACAAAAATTT, the “gcPBM binding intensity (ln)” value amounted to 9.47.

Regarding “ATAATGTGTTAGGCGTGTACACAATTGTATGGTTTA [XGTACX_site2377]”, the “gcPBM binding intensity (ln)” value came out at 7.09.

For “GTGTATCAATATGTAGGTACGTAAATATAGATAATA [XGTACX_site5526]”, the “gcPBM binding intensity (ln)” value was 6.76.

On to “TAAATATTATTTATATGTACTGATATATTAAATAAA [XGTACX_site3446]”, for which the “gcPBM binding intensity (ln)” value was 6.14.

For “AATTAATATTTAAATTGTACATGAACATTTTAATGT [XGTACX_site462]”, the “gcPBM binding intensity (ln)” value turned out to be 6.25.

Take “AAAATAAAATTTACTTGTACTAAAGGGATACGCGCA [XGTACX_site1453]”: the “gcPBM binding intensity (ln)” value stood at 6.44.
